Measured values published in PMC4336329 (PLoS ONE, 2015).
The whole screen tested about 310,000 compounds, of which about 2,200 (0.71%) showed an effect of 50% or more. The effect is printed as a negative number. The list shows a part of the results.

Target: human ether-à-go-go-related gene (hERG) potassium channel (human, UniProt Q12809)
Experiment: primary screen, population patch clamp on CHO cells stably expressing hERG

Sequence of human ether-à-go-go-related gene (hERG) potassium channel (Q12809 whole entry, looked up): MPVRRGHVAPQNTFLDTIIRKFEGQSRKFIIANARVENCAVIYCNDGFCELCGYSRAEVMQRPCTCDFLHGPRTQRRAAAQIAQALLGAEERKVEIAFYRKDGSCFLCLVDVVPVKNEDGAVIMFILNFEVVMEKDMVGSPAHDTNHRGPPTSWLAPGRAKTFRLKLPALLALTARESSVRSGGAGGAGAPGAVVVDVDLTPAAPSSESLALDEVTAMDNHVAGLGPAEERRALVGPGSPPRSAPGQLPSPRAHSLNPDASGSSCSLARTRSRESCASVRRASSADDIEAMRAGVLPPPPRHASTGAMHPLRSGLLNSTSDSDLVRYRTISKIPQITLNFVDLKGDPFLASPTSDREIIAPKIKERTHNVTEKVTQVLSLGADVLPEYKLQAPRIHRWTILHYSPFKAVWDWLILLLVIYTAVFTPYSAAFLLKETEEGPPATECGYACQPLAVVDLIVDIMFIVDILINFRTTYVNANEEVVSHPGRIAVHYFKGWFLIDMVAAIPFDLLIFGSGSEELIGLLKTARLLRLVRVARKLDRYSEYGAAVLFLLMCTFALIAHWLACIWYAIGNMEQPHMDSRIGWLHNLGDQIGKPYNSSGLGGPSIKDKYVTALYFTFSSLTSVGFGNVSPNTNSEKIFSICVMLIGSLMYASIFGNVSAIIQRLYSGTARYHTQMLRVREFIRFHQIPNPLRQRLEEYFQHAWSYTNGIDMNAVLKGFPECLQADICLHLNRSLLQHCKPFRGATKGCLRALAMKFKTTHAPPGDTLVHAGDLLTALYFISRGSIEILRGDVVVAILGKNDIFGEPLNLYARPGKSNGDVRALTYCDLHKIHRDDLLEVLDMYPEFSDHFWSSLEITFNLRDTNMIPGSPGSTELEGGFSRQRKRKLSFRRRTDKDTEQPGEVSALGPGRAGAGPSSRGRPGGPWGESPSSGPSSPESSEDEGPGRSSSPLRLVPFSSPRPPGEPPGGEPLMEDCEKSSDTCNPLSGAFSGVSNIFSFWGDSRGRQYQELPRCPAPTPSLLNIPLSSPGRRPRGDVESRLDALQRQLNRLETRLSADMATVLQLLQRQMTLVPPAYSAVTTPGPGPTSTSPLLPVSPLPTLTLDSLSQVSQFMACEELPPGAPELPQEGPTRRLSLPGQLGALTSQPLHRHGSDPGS

| SMILES | hERG current change (%, negative = inhibition) at 1uM [%] |
| --- | --- |
| COC(=O)Cc1sc(-c2ccccn2)nc1-c1ccccc1 | 10.4 |
| CCOC(=O)c1c(C)[nH]c(C)c1C(=O)COC(=O)c1cccc(S(=O)(=O)N(CC)CC)c1 | 2.25 |
| Cc1nc(SCC(=O)NC(C)c2ccccc2)c2oc3ccccc3c2n1 (stereo not shown) | 1.93 |
| CCn1cc([N+](=O)[O-])c(C(=O)Nc2c(C)nn(Cc3c(F)c(F)c(F)c(F)c3F)c2C)n1 | 3.28 |
| CCCCCc1ccc(-c2cn(Cc3ccc([N+](=O)[O-])cc3)nn2)cc1 | 15.8 |
| CCOC(=O)c1sc(NS(=O)(=O)c2cc(C)ccc2C)nc1C | 16.2 |
| CCc1c(C)c(C#N)c2nc3ccccc3n2c1NCc1ccccn1 | -8.03 |
| Cc1cccc(NC(=S)/N=C(\N)Nc2nc(C)c3ccc(C)cc3n2)c1 | 7.13 |
| Cc1ccc(N2C(=O)CC(c3ccsc3)C3=C2CC(C)(C)CC3=O)cc1 (stereo not shown) | 8.52 |
| CC(C)(C)NC(=O)NC(=O)COC(=O)COc1ccc(Cl)cc1Cl | 5.76 |
| CC(NC(=O)CCc1nc2cc(S(=O)(=O)N3CCOCC3)ccc2n1C)c1ccc(S(N)(=O)=O)cc1 (stereo not shown) | -8.24 |
| CC1CCN(C(=O)CN(c2ccccc2)S(=O)(=O)N(C)C)CC1 | 17.4 |
| O=c1sc2ccccc2n1CCOc1ccccc1 | 12.2 |
| COCCCN(CCC#N)C(=O)c1c(-c2c(Cl)cccc2Cl)noc1C | 13.4 |
| COc1ccccc1NC(=O)Nc1ccc(-n2ccc(C(F)(F)F)n2)cc1 | 13.5 |
| CCOC(=O)c1c(CC(C)C)csc1NC(=O)COC(=O)C1=NNC(=O)CC1 | 12.6 |
| CS(=O)(=O)N(CC(=O)Nc1ccccc1C(=O)N1CCOCC1)c1ccc2c(c1)OCO2 | 6.56 |
| Fc1ccc(Nc2nc3ccccc3s2)cc1 | 13.5 |
| Cn1c(=O)c2c(nc(Br)n2CC(=O)c2cccs2)n(C)c1=O | -3.85 |
| O=C1C=C(c2ccc(Oc3ccccc3)cc2)C[C@@H](c2ccc(F)cc2)C1 | 12.7 |
| COc1ccc(C(=O)NCCCn2ccnc2)cc1.Cl | 8.12 |
| CCn1c(=O)cc(SCC(=O)Nc2cccnc2)c2ccccc21 | -3.1 |

| SMILES | hERG current change (%, negative = inhibition) at 1uM [%] |
| --- | --- |
| CCCCNc1ccncc1S(=O)(=O)NC(=O)NC(C)C.O=[N+]([O-])O | 7.78 |
| Cl.Clc1ccc(COc2ccccc2CNCc2cccnc2)cc1 | 2.84 |
| NC(=O)CSc1nnc(Cn2c(=O)sc3ccccc32)n1CCc1ccccc1 | 2.54 |
| O=C(O)CN1C(=O)C2(OCCO2)c2cc(Br)ccc21 | 1.32 |
| Cc1ccc(N(C(C)C(=O)N2CCCC2)S(C)(=O)=O)cc1 (stereo not shown) | 15.8 |
| Cc1cc2nccc(-c3ccco3)n2n1 | 11.9 |
| Cc1nc2sc(C(c3ccc(Cl)cc3)N3CCN(c4ccccc4F)CC3)c(O)n2n1 (stereo not shown) | 0.119 |
| CC(C)Cn1c(N)c(C(=O)COC(=O)c2ccc3c(c2)OCCO3)c(=O)n(C)c1=O | -11.1 |
| C[C@@H](C(=O)Nc1nc(-c2ccccn2)cs1)N1C(=O)C2CCCCC2C1=O (stereo partly shown) | 8.07 |
| CCC(CC)c1nnc(NC(=O)C23CC4CC(CC(NC(C)=O)(C4)C2)C3)s1 | 0.699 |
| Cc1cccc(C)c1NC(=O)C(NS(=O)(=O)c1cccs1)c1ccccc1 (stereo not shown) | 10.2 |
| Cc1ccc(NC(=O)C2CCC(=O)N2C(=O)OCc2ccccc2)cc1 (stereo not shown) | 3.85 |
| O=C(CSc1n[nH]c(=O)n1Cc1ccco1)Nc1ccccc1 | 11.4 |
| CC1Cc2cc(/C(O)=C3/C(=O)C(=O)N(CCN4CCOCC4)C3c3cccc(Cl)c3)ccc2O1 (stereo not shown) | 5.27 |
| NS(=O)(=O)c1ccc(CNC(=O)Cc2ccsc2)cc1 | 18.3 |
| O=C(CCCc1nc2ccccc2s1)NCc1ccccc1F | -2.07 |
| CC(=O)Nc1sc(C)c(C)c1C(=O)OCC(=O)NCc1ccc(F)cc1 | 12.8 |
| COc1ccc(CCNC(=O)C2CCN(S(=O)(=O)c3ccc4c(c3)oc(=O)n4C)CC2)cc1OC | 12.4 |
| CCN1c2ccccc2-c2nc3ccccc3n2C1c1ccncc1 (stereo not shown) | 3.03 |
| CSc1ccccc1C(=O)OCC(=O)N1CCN(C(C)=O)CC1 | 15.2 |
| Cc1ccc(NS(=O)(=O)c2c(C(=O)N3CCOCC3)c(C)n(C)c2C)cc1C | 13.9 |
